Measurements taken from PubChem BioAssay AID463173 (ICCB-Longwood Screening Facility, Harvard Medical School, 2010).
Among all 52,000 compounds or so, about 1,700 (3.3%) were called active. Rule as the data show it: active = survival mostly below about 52% (no sharp cut-off); inactive = mostly above about 56%. The list shows a part of the results.

The compounds below were run on Wild type (assay: S. aureus survival, RN4220 and DeltatarO strains – OD600, teichoic acid synthesis inhibitors, primary screen (AID 463173)). Conditions: S. aureus RN4220 wild type/DeltatarO growth, OD600, 18 h, hits give low values, screened at 18.75 µg/mL (by protocol).

Row | SMILES | survival
1 | CCc1ccccc1NC(=O)Nc1cc(C(=O)NCc2ccccc2OC)ccc1N1CCCC1 | inactive: 72%
2 | COc1ccc(NC(=O)CN2C(=O)C(c3ccc(C)cc3)=NC23CCCCCC3)cc1Cl | inactive: 92%
3 | COc1cccc(-c2nc(SCC(=O)NCC3CCCO3)c(-c3ccc(Cl)cc3)[nH]2)c1 (configuration not stated) | inactive: 68%
4 | CN(C)CCNC(=O)C(=O)NCC(c1cccnc1)N1CCN(c2ccccc2)CC1 (configuration not stated) | inactive: 83%
5 | Cc1ccc(NC(=O)c2ccc(CNS(=O)(=O)c3ccc4c(c3)C(C)(C)C(=O)N4C)cc2)cc1 | inactive: 105%
6 | COc1ccc(N2CCN(C(=O)Cn3c(-c4cccs4)cc4ccccc43)CC2)cc1 | inactive: 99%
7 | Cc1ccc(C)c(Cn2c(=O)n(-c3ccc(F)cc3)c(=O)c3sc4ccccc4c32)c1 | inactive: 82%
8 | Clc1cccc(-n2ncc3c(Nc4ccc5c(c4)OCCO5)ncnc32)c1 | inactive: 47%
9 | O=C(CSc1nc2ccsc2c(=O)n1Cc1ccccc1F)NCc1ccccc1Cl | inactive: 120%
10 | CSc1nnc(-c2ccncc2)n1C | inactive: 110%
11 | CC(=O)N1CCc2cc(S(=O)(=O)NC(Cc3ccccc3)C(=O)Nc3ccc(C)cc3C)ccc21 (configuration not stated) | inactive: 74%
12 | O=C(Nc1cccc(Cl)c1Cl)c1cc(S(=O)(=O)N2CCCc3ccccc32)ccc1F | inactive: 85%
13 | COc1cc(OC)c(N(C)C(=O)CSc2c3c(nc4ccc(Cl)cc24)CCCC3)cc1Cl | active: 2%
14 | COc1ccc(CC(=O)NCC2OCCc3ccccc32)cc1OC (configuration not stated) | inactive: 112%
15 | Cc1ccc(C(=O)Nc2ccc3oc(-c4cc(Br)ccc4Cl)nc3c2)cc1 | inactive: 89%
16 | CCc1ccc(NC(=O)CC2C(=O)N(c3ccc(OC)cc3)C(=O)N2Cc2cccs2)cc1 (configuration not stated) | inactive: 75%
17 | Cc1cc(=O)[nH]c(SC(C)C(=O)NC2CCCCC2)n1 (configuration not stated) | inactive: 100%
18 | O=C(O)C1CC=CCC1C(=O)N1CCCC1 (configuration not stated) | inactive: 112%
19 | CCOC(=O)c1cnc2c(C)cc(C)cc2c1Nc1ccccc1OCC | active: -1%

Row | SMILES | survival
20 | COc1ccc(C(=O)Nc2ccc3oc(-c4cc(Cl)ccc4Cl)nc3c2)cc1Br | inactive: 76%
21 | Cc1nn2c(-c3ccco3)ccnc2c1-c1ccc(Cl)cc1 | inactive: 82%
22 | COC(=O)c1c(NC(=O)/C=C/c2ccc(OC)cc2)sc2c1CCC2 | inactive: 85%
23 | CC(C)c1cnc2c(c1SCC(=O)Nc1ccc(C(N)=O)cc1)c(=O)n(C)c(=O)n2C | inactive: 71%
24 | CCOC(=O)Cn1c(-c2cccs2)cc2cc(Cl)ccc21 | inactive: 30%
25 | COc1ccc(CNC(=O)CSc2ncc3c(n2)-c2cc(Cl)ccc2N(C)S3(=O)=O)cc1 | inactive: 59%
26 | CN(CCCNC(=O)c1cc2c(=O)n(C)c3ccccc3c2s1)Cc1ccccc1 | inactive: 77%
27 | O=C(Cn1c(=O)n(-c2ccccc2)c(=O)c2ccc(C(=O)NCc3ccc4c(c3)OCO4)cc21)Nc1ccc(F)c(Cl)c1 | inactive: 77%
28 | COc1ccc(N(C(=O)c2cccc(C)c2)S(=O)(=O)c2ccc3c(c2)n(C)c(=O)n3C)cc1 | inactive: 79%
29 | CCOC(=O)c1cc(OC(=O)c2ccccc2OC)n(-c2ccccc2)n1 | inactive: 68%
30 | CCN1C(=O)c2ccccc2Sc2ccc(NC(=O)c3cccc(C)c3)cc21 | inactive: 80%
31 | Cc1ccc(NC(=O)Nc2cccs2)c(C)c1 | inactive: 86%
32 | CC(C(=O)O)N1C(=O)/C(=C/c2ccco2)SC1=S (configuration not stated) | inactive: 106%
33 | COC(=O)Cn1c2ccccc2c2nc(C)sc21 | inactive: 92%
34 | COc1ccc(CCNC(=O)c2ccc3c(c2)N(Cc2cccc(Cl)c2)C(=O)c2ccccc2S3=O)cc1OC (configuration not stated) | inactive: 75%
35 | Cc1cccc(CC(=O)NCCc2sc3nc(-c4ccc(F)cc4)nn3c2C)c1 | inactive: 119%
36 | CN(C)CC(O)C1CCOC(C)(C)C1 (configuration not stated) | inactive: 111%
37 | COc1ccc(OCC(=O)N(Cc2ccc(C)o2)C2CCS(=O)(=O)C2)cc1 (configuration not stated) | inactive: 94%
38 | c1ccc2c(c1)[nH]c1nc(NN=C3CCC(=NNc4nnc5c(n4)[nH]c4ccccc45)CC3)nnc12 | inactive: 108%

Row | SMILES | survival
39 | CCOc1ccc(CCNC(=O)c2ccc(-c3nc(CSc4ccccc4)c(C)o3)cc2)cc1 | inactive: 87%
40 | CCC(C)NC(=O)CSCc1nc(-c2ccc(C)cc2)oc1C (configuration not stated) | inactive: 82%
41 | O=C(c1ccccc1Br)N(Cc1ccccc1F)C1CCS(=O)(=O)C1 (configuration not stated) | inactive: 114%
42 | CN1CCN(C(=O)c2ccc3c(c2)N(Cc2ccc(Cl)cc2)C(=O)c2ccccc2S3(=O)=O)CC1 | inactive: 90%
43 | CCc1ccc(N(CC)C(=O)c2sc3nc4n(c(=O)c3c2C)CCCC4)cc1 | inactive: 75%
44 | COc1ccccc1NC(=O)CN1C(=O)CCSc2ccccc21 | inactive: 77%
45 | CCOC(=O)C1(C(=O)OCC)CC1(C(=O)OCC)C(=O)OCC | inactive: 105%
46 | Cc1cccc(NS(=O)(=O)c2ccc3c(c2)CCN3C(=O)C2CC2)c1C | inactive: 70%
47 | Cn1nnnc1SCCCNCc1ccccc1OCc1ccc(F)cc1 | inactive: 89%
48 | CCN(C(=O)c1cn(C)c(=O)c2ccccc12)c1cccc(C)c1 | inactive: 143%
49 | Cc1ccc(Cl)cc1NC(=O)CSCc1cnn(-c2ccccc2)c1-n1cccc1 | inactive: 78%
50 | O=C(Cn1c(=O)ccc2cc(S(=O)(=O)N3CCCC3)ccc21)Nc1ccc(Cl)cc1 | inactive: 81%
51 | COc1cccc(Cn2c(=O)n(CCc3ccccc3)c(=O)c3c2c2cc(OC)ccc2n3C)c1 | inactive: 55%
52 | Cc1ccc(Cl)cc1NC(=O)C1CCN(S(=O)(=O)c2cccc3nonc23)CC1 | inactive: 109%
53 | COc1ccc(C(=O)NNc2ncnc3c2cnn3-c2ccc(C)c(Cl)c2)cc1 | inactive: 73%
54 | COc1ccc(NC(=O)c2c(NC(=O)c3ccncc3)sc3c2CCC(C(C)(C)C)C3)cc1 (configuration not stated) | inactive: 47%
55 | CCOc1ccc(N(CC(=O)Nc2ccccc2CC)S(=O)(=O)c2c(C)noc2C)cc1 | inactive: 86%
56 | Cc1cccc(NC(=O)CSc2nc3ccccc3nc2N2CCCCC2)c1C | inactive: 70%
57 | COc1cc(NC(=O)C(Cc2ccccc2)NS(=O)(=O)c2cccc3nsnc23)cc(OC)c1 (configuration not stated) | inactive: 79%
